From PubChem BioAssay AID588855 (National Center for Advancing Translational Sciences (NCATS), 2011)
Out of some 410,000 compounds screened, about 5,000 (1.2%) were called active. The shares of active, inactive and inconclusive entries below differ from those in the screen. The call rests on the fitted dose curve; in most records, active means well fitted inhibition curve with a large enough effect; inconclusive means small, poorly fitted or top-dose-only effect; inactive means no such curve, though single readings can be large or run the other way. Where the call is inconclusive, the potency comes from a doubtful curve fit.
On the % scale 0 is the no-effect control and ±100 the full control effect; potency means the concentration at half of the fitted maximal effect; tags describe the fitted curve by direction and shape.

Experiment: qHTS for Inhibitors of TGF-b; further: nearly all actives have a fitted effect of over 65% in size
Settings: HepG2 CAGA-GFP TGF-b/SMAD3 reporter, GFP fluorescence, 18 h, TGF-beta stimulated, 500 pg/mL final; series mostly up to 46.1 µM; activity, negative = inhibition: at the top concentration
Procedure, shortened: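 Cell-based qHTS in HEPG2 carrying a CAGA-GFP Smad reporter; compounds added before 500 pg/mL final TGF-beta, 18 h incubation at 37 degrees C, GFP fluorescence quantified per cell by imaging cytometry.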
With `Nc1ncc(-c2ccccc2)c(-c2ccc(OCc3ccccc3)cc2O)n1` the Potency was inconclusive: 15.8 µM [inhibitor, single point].
With `CC(C)Cc1nn2c(=O)cc(COC(=O)c3ccc4c(c3)OCO4)nc2s1` the Potency was inconclusive: 2.51 µM [inhibitor, full curve].
With `CCc1nc2c(OCc3cccc(OC)c3)cccn2c1N(C)C(=O)c1ccccc1F` the “activity, negative = inhibition” value was inactive: 13.7%.
With `COC(=O)c1sccc1NC(=O)CSc1nnnn1-c1ccccc1C` the Potency was inconclusive: 3.16 µM [inhibitor, single point].
For `CCC(C)NC(=O)c1ccc2c(c1)S(=O)(=O)c1ccccc1C2=O` (stereo unspecified), the “activity, negative = inhibition” value was inactive: 3.01%.
With `Cc1ccc(OCC(=O)N/N=C/C=C/c2ccco2)cc1` the “activity, negative = inhibition” value was inactive: -29.1%.
With `CC1CCCN(C(=O)c2ccc3c(=O)n(C4CCCC4)c(=S)[nH]c3c2)C1` (stereo unspecified) the Potency was inconclusive: 7.94 µM [inhibitor, partial curve, poor fit].
For `O=C(NC(=S)Nc1cccc(CO)c1)c1ccc(-c2ccccc2)cc1`, the Potency was inconclusive: 35.5 µM [inhibitor, single point].
In the case of `COc1ccc(NC(=O)c2cccc(C#N)c2)cc1NS(=O)(=O)c1ccc(F)cc1`, the “activity, negative = inhibition” value is reported as inactive: -16.4%.
For `COc1ccc(-c2[nH]c3ccccc3c2SCCNC(=O)c2ccccc2)cc1`, the Potency was inconclusive: 35.5 µM [inhibitor, single point].
In the case of `O=[N+]([O-])c1cc(C(F)(F)F)ccc1N1CCN(S(=O)(=O)c2ccc3c(c2)CCCC3)CC1`, the Potency is reported as inconclusive: 0.631 µM [inhibitor, full curve, poor fit].
With `CC1CCCN(C(=O)CSCC(=O)Nc2nc(-c3cccs3)cs2)C1` (stereo unspecified) the Potency was inconclusive: 15.8 µM [inhibitor, single point].
With `O=C(Nc1c2ccccc2nc2ccccc12)C(Cl)(Cl)Cl` the Potency was inconclusive: 3.16 µM [inhibitor, single point].
In the case of `Cc1cc(SCC(=O)c2cccc([N+](=O)[O-])c2)nc(=O)[nH]1`, the “activity, negative = inhibition” value is reported as inactive: -3.84%.
With `CCOC(=O)CSc1nc2cc(S(=O)(=O)Nc3ccccc3OC)ccc2o1` the Potency was inconclusive: 35.5 µM [inhibitor, single point].
In the case of `O=C(NC(c1ccc(Cl)cc1)c1cnccn1)C1CCN(Cc2ccc(Oc3ccccc3)cc2)CC1` (stereo unspecified), the Potency is reported as inconclusive: 22.4 µM [inhibitor, single point].
For `CC(C)(C)OC(=O)N1CCCC(C(=O)Nc2cccc(C(=O)NCCc3ccccc3)c2)C1` (stereo unspecified), the “activity, negative = inhibition” value was inactive: 0.118%.
With `COc1ccc(-c2nc(C)ncc2-c2csc(C)n2)c(O)c1` the Potency was inconclusive: 35.5 µM [inhibitor, single point].
For `C=CCn1c(-c2ccc3[nH]c(C)c(C)c3c2)n[nH]c1=S`, the Potency was inconclusive: 0.891 µM [inhibitor, full curve, poor fit].
In the case of `CCOC(=O)c1sc(NC(=O)c2cc3c(s2)CCC(C)C3)nc1C` (stereo unspecified), the “activity, negative = inhibition” value is reported as inactive: -1.88%.
With `Cc1cc(SCC(=O)OCC(=O)N(CCC#N)c2ccccc2)nc2ccccc12` the Potency was inconclusive: 22.4 µM [inhibitor, single point].
For `CC(=O)OC(COc1ccccc1)Cn1cnc2cc(C)c(C)cc21` (stereo unspecified), the Potency was inconclusive: 12.6 µM [inhibitor, partial curve, poor fit].
In the case of `O=C(CCSCc1ccccc1Cl)N1CCN(c2cccc(Cl)c2)CC1`, the Potency is reported as inconclusive: 35.5 µM [inhibitor, single point].
For `C/C(Cn1nc([N+](=O)[O-])cc1C)=N\NC(=O)c1cccc(Br)c1`, the Potency was inconclusive: 2 µM [inhibitor, partial curve, poor fit].
With `O=C(NCc1ccco1)C1CCN(C(=O)c2ccc([N+](=O)[O-])cc2)CC1` the Potency was inconclusive: 35.5 µM [inhibitor, partial curve, poor fit].
With `CC(C)(Oc1ccc(CCNC(=O)c2ccc(-c3ccccc3)o2)cc1)C(=O)O` the Potency was inconclusive: 6.31 µM [inhibitor, single point].
In the case of `O=C(CCC(=O)N1CCN(S(=O)(=O)c2ccc3ccccc3c2)CC1)Nc1cc(Cl)cc(Cl)c1`, the Potency is reported as active: 7.08 µM.
In the case of `COc1ccccc1OCC(=O)Nc1ccccc1C(=O)NCc1cccnc1`, the “activity, negative = inhibition” value is reported as inactive: -4.49%.
With `COc1ccc(-c2noc(CCC(=O)N3CCN(c4ccccc4Br)CC3)n2)cc1` the Potency was inconclusive: 20 µM [inhibitor, single point].
In the case of `CCCn1c(NC(=O)C2CCN(S(=O)(=O)c3cccs3)CC2)nc2ccccc21`, the Potency is reported as inconclusive: 11.2 µM [inhibitor, partial curve, poor fit].
With `COc1ccc(OC)c(C(=O)NC(CC(N)=O)c2ccc(NCCN3CCCCC3)c([N+](=O)[O-])c2)c1` (stereo unspecified) the Potency was inconclusive: 25.1 µM [inhibitor, single point].
In the case of `O=C(Nc1nc(-c2ccc(-c3ccccc3)cc2)cs1)c1cc([N+](=O)[O-])ccc1N1CCOCC1`, the Potency is reported as inconclusive: 0.562 µM [inhibitor, full curve, poor fit].
In the case of `O=S(=O)(NCc1ccccc1)c1ccc(-c2cnc(C3CC3)o2)cc1`, the Potency is reported as inconclusive: 0.282 µM [inhibitor, full curve, poor fit].
In the case of `COc1ccc(CNC(=O)CN(c2ccccc2OC)S(=O)(=O)c2ccc(C)cc2)cc1`, the Potency is reported as inconclusive: 10 µM [inhibitor, partial curve].
In the case of `CCN(CC)CCCNC(=O)CCC(=O)Nc1ccc2nc(N3CCC(C)CC3)cc(C)c2c1`, the Potency is reported as inconclusive: 35.5 µM [inhibitor, single point].
In the case of `O=c1oc2c(CN3CCOCC3)c(O)ccc2cc1-c1ccc(Cl)cc1`, the Potency is reported as inconclusive: 35.5 µM [inhibitor, single point].
In the case of `CCC/C(O)=C1\C(=O)CC(C)(C)CC1=Nc1ccc(OC)cc1`, the “activity, negative = inhibition” value is reported as inactive: 28.2%.
For `CCCCCCOc1ccc(/C(C)=N/NC2=NCCN2)cc1[N+](=O)[O-]`, the Potency was inconclusive: 20 µM [inhibitor, single point].
With `CCOc1ccc(CCNC(=O)Cn2nc(CC)n3c(cc4sc(CC)cc43)c2=O)cc1OCC` the “activity, negative = inhibition” value was inactive: -29.1%.
For `CCCOc1ccc(NC(=O)CC2C(=O)N(C)C(=S)N2Cc2cccs2)cc1` (stereo unspecified), the Potency was inconclusive: 7.94 µM [inhibitor, partial curve, poor fit].
With `O=C(NNc1ccc([N+](=O)[O-])cc1[N+](=O)[O-])c1ccco1` the Potency was inconclusive: 11.2 µM [inhibitor, partial curve, poor fit].
